Measured values reported in a compilation of properties of binary mixtures (doi:10.1002/aic.14507).
Some of these densities may be calculated back from excess volumes.

Experiment: xn = mol fraction of the nth substance listed
Details: 100 kPa

Row | Structure (SMILES) | mass density (313 K, x1 = 0.5482) [kg/m3] | mass density (318 K, x1 = 0.5482) [kg/m3] | mass density (323 K, x1 = 0.5482) [kg/m3] | mass density (303 K, x1 = 0.4462) [kg/m3] | mass density (303 K, x1 = 0.6298) [kg/m3] | mass density (313 K, x1 = 0.0098) [kg/m3] | mass density (313 K, x1 = 0.0219) [kg/m3] | mass density (313 K, x1 = 0.037) [kg/m3] | mass density (313 K, x1 = 0.1184) [kg/m3] | mass density (313 K, x1 = 0.1728) [kg/m3] | mass density (313 K, x1 = 0.4462) [kg/m3] | mass density (313 K, x1 = 0.6298) [kg/m3] | mass density (318 K, x1 = 0.4462) [kg/m3] | mass density (318 K, x1 = 0.6298) [kg/m3] | mass density (323 K, x1 = 0.4462) [kg/m3] | mass density (323 K, x1 = 0.6298) [kg/m3]
1 | CCCCCCCCn1cc[n+](C)c1.F[B-](F)(F)F + O | 1082.2 | 1077.9 | 1073.7 |  |  |  |  |  |  |  |  |  |  |  |  | 
2 | CCCC[n+]1ccn(C)c1.O=[N+]([O-])[O-] + O |  |  |  | 1134.7 | 1147.9 | 1005.9 | 1019.9 | 1035.2 | 1083.2 | 1100.9 | 1128 | 1141.4 | 1124.7 | 1138.2 | 1121.4 | 1135
